# Whole data set: some 110,000 compounds, median “z-score” near -0.1, cut for the highest 2% near 2. This is one part of the list. Activity calls are given as the source filed them.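 How the source made its calls: active means z-score in the third read window above 3 or below -3; inactive means the rest.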
# Target: Metabotropic glutamate receptor 8 (Rattus norvegicus) (UniProt P70579)
# Experiment: mGluR8 Gi/Go-coupled signaling modulation – cell-based, rat, thallium flux, HTS, primary screen (AID 488969)
# Conditions: HEK293 rat mGluR8, GIRK (G protein-gated inwardly rectifying potassium channel) thallium flux, FluoZin2; at 10 µM; stronger effect = higher value; submaximal glutamate (EC20) added with thallium
# Chain of UniProt P70579 (P70579 whole entry, looked up): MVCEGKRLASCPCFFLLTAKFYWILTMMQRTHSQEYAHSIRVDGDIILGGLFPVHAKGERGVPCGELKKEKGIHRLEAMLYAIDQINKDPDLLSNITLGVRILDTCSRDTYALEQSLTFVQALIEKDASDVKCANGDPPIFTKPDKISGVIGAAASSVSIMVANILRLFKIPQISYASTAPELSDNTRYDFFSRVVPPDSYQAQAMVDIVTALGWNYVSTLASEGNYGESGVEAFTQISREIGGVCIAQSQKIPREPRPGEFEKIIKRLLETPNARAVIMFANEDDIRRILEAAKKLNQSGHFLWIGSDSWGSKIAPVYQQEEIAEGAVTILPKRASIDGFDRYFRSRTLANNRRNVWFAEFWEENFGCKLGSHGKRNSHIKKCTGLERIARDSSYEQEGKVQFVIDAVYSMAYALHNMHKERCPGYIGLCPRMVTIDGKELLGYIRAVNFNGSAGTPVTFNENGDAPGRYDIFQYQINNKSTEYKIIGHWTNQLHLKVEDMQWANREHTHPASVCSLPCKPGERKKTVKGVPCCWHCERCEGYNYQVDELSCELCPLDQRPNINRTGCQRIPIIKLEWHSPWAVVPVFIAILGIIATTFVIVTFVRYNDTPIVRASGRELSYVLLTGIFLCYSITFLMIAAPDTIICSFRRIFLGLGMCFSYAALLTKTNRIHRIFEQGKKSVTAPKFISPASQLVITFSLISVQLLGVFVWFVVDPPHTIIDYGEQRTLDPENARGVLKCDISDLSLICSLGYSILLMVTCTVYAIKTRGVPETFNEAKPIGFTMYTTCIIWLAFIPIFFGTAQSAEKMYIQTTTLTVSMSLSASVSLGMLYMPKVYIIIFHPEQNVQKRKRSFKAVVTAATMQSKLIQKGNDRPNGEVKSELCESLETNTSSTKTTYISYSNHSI
row,SMILES,z-score
1,CSc1nc(Oc2cccc(C(F)(F)F)c2)cc(C(F)(F)F)n1,-0.19
2,Cc1ccc(S(=O)(=O)Oc2ccccc2/C=N/NC(N)=S)cc1,-0.566
3,CC(NC(=O)CSc1cccc(C(F)(F)F)c1)c1ccccc1 (stereo not given),-0.0289
4,O=C(Nc1cccn(Cc2c(Cl)cccc2Cl)c1=O)c1c(Cl)cccc1Cl,-0.126
5,COc1cc(C(c2nnnn2C2CCCC2)N2CCN(C)CC2)cc(OC)c1OC (stereo not given),-0.22
6,CCOc1ccccc1NC(=O)/C=C/C(N)=O,-0.0696
7,CC(=O)C1=C(C)OC(N)=C(C#N)C1c1ccncc1 (stereo not given),-0.0229
8,Cc1nn(C)cc1CNC(=O)c1ccc(F)cc1,-0.242
9,O=C(COc1ccc(Cl)cc1Cl)OCn1nnc2ccccc2c1=O,-0.36
10,Cc1cccc(NC(=O)c2cccc3c2C(=O)c2ccccc2-3)c1,0.223
11,Cc1ccc(SCCNC(=O)/C=C/c2ccccc2Cl)cc1,-0.258
12,O=C(CCc1ccccc1)Nc1c(F)c(F)c(F)c(F)c1F,-0.259
13,CCC(NC(=O)NCc1cccnc1)(C(F)(F)F)C(F)(F)F,0.00489
14,CCn1c(COc2cccc(C)c2)nnc1SCC(=O)Nc1cccc(C(=O)O)c1,-0.489
15,COc1cc(OC)c(C2=NOC(C(=O)N3CCCc4ccccc43)C2)cc1Cl (stereo not given),-0.168
16,COC(=O)CSc1cc(C(F)(F)F)nc(-c2ccccn2)n1,-0.0792
17,CN(Cc1ccccc1)C(=O)c1cnc2n(c1=O)CCS2,0.863
18,C(=C\c1nc(-c2ccccc2)no1)/c1ccccc1,0.096
19,CC(C)CCN1C(=O)c2ccc(C(=O)NCC3CCCO3)cc2C1=O (stereo not given),0.744
20,COc1ccc(S(=O)(=O)Nc2ccc3c(c2)OCO3)cc1,-0.0161
21,CCOC(=O)Nc1sc(=S)n(C)c1C,-0.207
22,CC1(c2ccccc2)NC(=O)N(CC(=O)N2CCOCC2)C1=O (stereo not given),0.596
23,Cc1ccsc1/C=C1\CCc2ccccc2C1=O,-1.25
24,Cc1cccc(NC(=O)CCC(=O)N/N=C/c2cc([N+](=O)[O-])ccc2O)c1,-0.448
25,FC(F)(F)c1ccccc1Nc1nccs1,-0.57

row,SMILES,z-score
1,O=C1C2CCCN2C(c2ccc(Cl)cc2)N1c1nccs1 (stereo not given),-0.127
2,CCn1c2ccccc2c2cc(NS(=O)(=O)c3ccccc3C)ccc21,-0.0727
3,COc1cc(/C=N/NC(=O)CCc2c(C)n[nH]c2C)ccc1O,-0.233
4,CCc1ccc(NC(=O)CSc2nnc(SCC(=O)Nc3ccc(CC)cc3)n2N)cc1,-0.053
5,CC(C)NS(=O)(=O)c1ccc(NC(=O)C2CCCCC2)cc1,0.919
6,CCN(CC)S(=O)(=O)c1cccc(NC(=O)COC(=O)/C=C/c2ccco2)c1,0.436
7,CC(NC(=O)c1ccco1)C(c1cccs1)N1CCOCC1 (stereo not given),0.165
8,O=C1C2C3C=CC(C3)C2C(=O)N1c1nc2ccccc2s1 (stereo not given),-0.239
9,CC(=O)Nc1sc(C)c(C)c1C(=O)OC1CCOC1=O (stereo not given),1.73
10,O=C(Nc1nc2ccccc2[nH]1)c1cccc(S(=O)(=O)N2CCOCC2)c1,0.109
11,CCOc1ccc(C2N(c3ccc(F)cc3)C(=O)C3CCCN32)cc1 (stereo not given),-0.11
12,NC(=O)C1CCCN(C(=S)Nc2cccc3ccccc23)C1 (stereo not given),-0.116
13,O=c1c(Cl)c(NCc2ccc(F)cc2Cl)cnn1C12CC3CC(CC(C3)C1)C2,-0.193
14,CCCN1C(=O)/C(=C/c2ccc(C)s2)NC1=S,active: 13.9
15,Cc1onc(-c2c(F)cccc2Cl)c1C(=O)N1C=CC(C(F)(F)Cl)=NCC1,-0.129
16,CCC(=O)Nc1ccccc1Oc1ccccc1,0.538
17,Cc1ccccc1NC(=S)NNC(=O)c1ccoc1C,-0.0215
18,O=C(CC1SCCNC1=O)Nc1cc(Cl)cc(Cl)c1 (stereo not given),-0.399
19,CCN(CC)CCNC(=O)c1ccc2c(=O)n(CCc3ccccc3)c(=O)[nH]c2c1,0.276
20,CC/C(=N\NC(=O)c1ccc(-c2ccccc2)cc1)C12CC3CC(CC(C3)C1)C2,0.0832
21,O=C(COC(=O)CCSc1ccccc1)Nc1ccc(F)cc1Cl,-0.378
22,CCC1(C)Cc2c(sc3nn[nH]c(=O)c23)CO1 (stereo not given),-0.625
23,CCOc1ccc(C2/C(=C(/O)c3ccc(F)cc3)C(=O)C(=O)N2CCCN(C)C)cc1 (stereo not given),0.714
24,CC(=O)N1CCn2c3ccc(C)cc3c3cccc1c32,-0.12
25,O=[N+]([O-])c1ccc(N=Nc2ccc(O)cc2O)cc1,-0.521

row,SMILES,z-score
1,CCC(C)NC(=O)COc1ccc(Br)c(C)c1 (stereo not given),0.482
2,COc1ccccc1N/C(N)=N/c1nc(CSc2ccc(C)cc2)cc(=O)[nH]1,-0.0894
3,Cc1cc2cc(C)c3nnc(SCC(=O)NCc4ccco4)n3c2cc1C,-0.212
4,CCCCCCCC(=O)N/N=C/c1ccc(Br)cc1,-0.319
5,COCc1nn2c(N)c(C#N)cnc2c1-c1ccccc1,0.664
6,O=C(COC(=O)c1cnccn1)c1ccccc1,-0.276
7,N#Cc1ccc(OCc2nnc(SCC(=O)N3CCCc4ccccc43)n2-c2ccccc2)cc1,-0.172
8,COc1ccccc1NC(=O)CCCC(=O)OCC(F)(F)C(F)F,0.169
9,O=C(NCCN1CCOCC1)c1ccccc1-c1ccccc1,0.163
10,c1ccc2c(CNn3cnnc3)cccc2c1,-0.167
11,O=C(O)c1ccc(N/N=C/c2ccc3ncccc3c2)cc1,0.799
12,O=S(=O)(Nc1cnc2ccccc2c1)N1CCCCCC1,-0.166
13,O=C(Nc1cccnc1)c1cc(-c2ccccc2)on1,-0.466
14,CSc1nnc(NC(=O)c2cc3ccccc3oc2=O)s1,0.609
15,COc1cc(N)c(Cl)cc1NC(=O)c1ccccc1,0.363
16,Nc1ccccc1OCCOCCOc1ccccc1N,-0.0436
17,Cc1ccccc1NC(=O)c1ccc(S(=O)(=O)N(C)C)cc1,0.114
18,COn1c(-c2ccccc2)nc2c1CCc1c-2no[n+]1[O-],-0.14
19,CCOc1ccccc1OCCCC(=O)OCC(=O)Nc1cccc(Cl)c1,0.132
20,c1ccc2c(c1)nc(N1CCOCC1)c1nncn12,-0.183
21,NC(=O)c1ccc(C(F)(F)F)n(Cc2c(Cl)cccc2Cl)c1=O,-0.486
22,CC(C)C(c1nnnn1Cc1ccc2c(c1)OCO2)N1CCN(C)CC1 (stereo not given),-0.14
23,COc1cccc(Cn2c(NCc3cccnc3)nc3c2c(=O)n(C)c(=O)n3C)c1,-0.037
24,CCOC(=O)N1CCN(c2c(NCCCN3CCCCCC3)c(=O)c2=O)CC1,-0.116
25,CCOC(=O)C(Sc1ncnc2c1sc1nc(N3CCOCC3)c3c(c12)CCCC3)c1ccccc1 (stereo not given),-0.224

# From PubChem BioAssay AID488969 (Vanderbilt High Throughput Screening Facility, 2010)
